Results are given in words; binding and its absence hold for the method and conditions named. In cells and extracts the contact can be indirect. Some entries that bind do so weakly or less than the wild type. Sequences can lack the tags named with a protein.
Key:
Assay in all cases: co-IP; HEK293 cells co-transfected with tagged plasmids; lysate incubated with the indicated antibody overnight at 4 °C, protein A/G plus agarose beads, western blot; in some panels a third protein co-expressed, or cells incubated with 5Z-7-OX (0.1, 0.3 or 1 mM, 12 h)
TRAF6 (332–530) = biological target: T1, TRAF6 (332–530) (UniProt P70196)
T1 sequence: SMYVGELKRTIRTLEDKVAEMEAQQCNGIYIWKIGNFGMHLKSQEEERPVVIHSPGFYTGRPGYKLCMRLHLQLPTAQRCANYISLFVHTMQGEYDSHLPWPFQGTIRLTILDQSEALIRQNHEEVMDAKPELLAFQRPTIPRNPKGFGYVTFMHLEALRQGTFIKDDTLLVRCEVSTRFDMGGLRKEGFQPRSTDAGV

Amino acid sequences for entries named in this document (tags omitted). Residues count along the entry.
UniProt Q62406: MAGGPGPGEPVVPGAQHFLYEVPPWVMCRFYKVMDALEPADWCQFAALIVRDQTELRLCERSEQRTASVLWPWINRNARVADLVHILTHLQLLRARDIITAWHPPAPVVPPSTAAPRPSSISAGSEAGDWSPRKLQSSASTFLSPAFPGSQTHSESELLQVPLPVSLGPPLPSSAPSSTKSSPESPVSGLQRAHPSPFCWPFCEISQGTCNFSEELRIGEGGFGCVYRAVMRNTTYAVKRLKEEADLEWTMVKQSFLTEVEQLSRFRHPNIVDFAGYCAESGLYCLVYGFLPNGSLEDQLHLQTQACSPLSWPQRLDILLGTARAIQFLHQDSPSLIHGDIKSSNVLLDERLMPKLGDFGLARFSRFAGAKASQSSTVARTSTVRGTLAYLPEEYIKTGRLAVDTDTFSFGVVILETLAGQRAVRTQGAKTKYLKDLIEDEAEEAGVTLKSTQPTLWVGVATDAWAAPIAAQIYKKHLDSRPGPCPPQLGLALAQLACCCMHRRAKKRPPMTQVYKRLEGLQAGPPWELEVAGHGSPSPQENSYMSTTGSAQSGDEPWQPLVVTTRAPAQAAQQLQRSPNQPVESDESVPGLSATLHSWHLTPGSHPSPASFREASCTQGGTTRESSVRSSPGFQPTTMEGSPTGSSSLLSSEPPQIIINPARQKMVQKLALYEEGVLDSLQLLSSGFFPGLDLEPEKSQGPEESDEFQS
UniProt Q9QUK6, residues 26-835: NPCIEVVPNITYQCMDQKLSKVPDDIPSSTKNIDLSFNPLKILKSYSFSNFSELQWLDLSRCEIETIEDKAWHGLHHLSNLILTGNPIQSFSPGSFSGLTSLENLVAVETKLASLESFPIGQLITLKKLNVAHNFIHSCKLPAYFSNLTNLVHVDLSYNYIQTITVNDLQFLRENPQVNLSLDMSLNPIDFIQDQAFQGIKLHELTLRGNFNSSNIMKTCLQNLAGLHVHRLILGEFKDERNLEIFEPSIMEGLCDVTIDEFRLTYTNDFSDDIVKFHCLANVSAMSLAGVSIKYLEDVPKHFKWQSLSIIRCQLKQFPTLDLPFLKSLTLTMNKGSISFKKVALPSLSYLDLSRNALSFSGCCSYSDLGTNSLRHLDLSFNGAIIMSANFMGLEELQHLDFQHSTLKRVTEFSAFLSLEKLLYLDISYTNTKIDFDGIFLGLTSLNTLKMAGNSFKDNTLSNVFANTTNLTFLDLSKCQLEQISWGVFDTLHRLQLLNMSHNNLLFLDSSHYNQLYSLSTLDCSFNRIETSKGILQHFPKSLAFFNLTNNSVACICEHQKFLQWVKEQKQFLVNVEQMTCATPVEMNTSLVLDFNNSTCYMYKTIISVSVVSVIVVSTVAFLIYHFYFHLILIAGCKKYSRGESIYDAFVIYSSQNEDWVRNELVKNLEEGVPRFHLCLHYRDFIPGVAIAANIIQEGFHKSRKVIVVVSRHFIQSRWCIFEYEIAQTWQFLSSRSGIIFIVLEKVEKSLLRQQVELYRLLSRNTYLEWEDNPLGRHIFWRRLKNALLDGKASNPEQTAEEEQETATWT
UniProt P22366: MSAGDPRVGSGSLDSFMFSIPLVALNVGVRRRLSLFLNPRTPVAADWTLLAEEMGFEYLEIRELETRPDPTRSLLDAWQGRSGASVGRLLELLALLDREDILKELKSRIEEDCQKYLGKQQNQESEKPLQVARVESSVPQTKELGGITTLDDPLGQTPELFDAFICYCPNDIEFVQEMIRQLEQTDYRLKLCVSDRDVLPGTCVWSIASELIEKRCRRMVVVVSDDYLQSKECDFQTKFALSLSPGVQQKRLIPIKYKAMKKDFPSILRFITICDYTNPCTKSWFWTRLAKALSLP

[1] = biological target: T2, HA-TAK1 (transforming growth factor β-activated kinase) (UniProt Q62073)
T2 sequence: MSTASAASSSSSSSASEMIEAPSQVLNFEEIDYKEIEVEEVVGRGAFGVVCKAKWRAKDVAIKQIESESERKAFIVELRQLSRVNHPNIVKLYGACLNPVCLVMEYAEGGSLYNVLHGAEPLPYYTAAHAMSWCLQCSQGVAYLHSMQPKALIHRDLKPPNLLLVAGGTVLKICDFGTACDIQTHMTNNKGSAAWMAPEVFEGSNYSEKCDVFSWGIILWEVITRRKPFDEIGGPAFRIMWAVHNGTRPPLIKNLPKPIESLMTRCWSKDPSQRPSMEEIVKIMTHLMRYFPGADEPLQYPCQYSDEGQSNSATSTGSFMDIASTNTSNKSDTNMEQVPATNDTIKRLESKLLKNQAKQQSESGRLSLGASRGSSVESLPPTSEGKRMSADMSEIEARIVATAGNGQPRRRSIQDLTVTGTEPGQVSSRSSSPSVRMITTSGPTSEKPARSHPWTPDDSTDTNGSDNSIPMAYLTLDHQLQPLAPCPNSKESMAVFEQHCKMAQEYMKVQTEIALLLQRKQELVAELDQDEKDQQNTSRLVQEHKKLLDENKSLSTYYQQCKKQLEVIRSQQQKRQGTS

[2] = biological target: interleukin 1 receptor-associated kinase 1 (IRAK1) (UniProt Q62406)
TAK1 (1–300) = biological target: T3, TAK1 (1–300) (UniProt Q62073)
T3 sequence: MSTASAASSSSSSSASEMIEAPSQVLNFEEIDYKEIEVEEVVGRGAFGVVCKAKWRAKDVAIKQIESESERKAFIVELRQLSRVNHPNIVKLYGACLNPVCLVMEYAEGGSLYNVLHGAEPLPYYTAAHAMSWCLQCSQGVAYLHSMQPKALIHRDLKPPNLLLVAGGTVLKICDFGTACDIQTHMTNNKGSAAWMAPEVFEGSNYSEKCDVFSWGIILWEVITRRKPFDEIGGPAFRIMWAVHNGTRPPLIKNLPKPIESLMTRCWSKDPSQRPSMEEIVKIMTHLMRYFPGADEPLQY

TLR4 = TLR4 (UniProt Q9QUK6)
[3] = biological target: T4, His-TAK1 (transforming growth factor β-activated kinase) (UniProt Q62073)
T4 sequence: T2 sequence

[4] = biological target: myeloid differentiation primary response gene 88 (MyD88) (UniProt P22366)

B1: Flag-TIGAR (TP53-induced glycolysis and apoptosis regulator) (protein, UniProt Q8BZA9 1-269)
chain: MPRFALTVIRHGETRLNKEKIIQGQGVDAPLSETGFRQAAAAGQFLSNVQFTHAFSSDLTRTKQTIHGILEKSRFCKDMAVKYDSRLRERMYGVAEGKPLSELRAMAKAAGEECPMFTPPGGETVEQVKMRGKDFFDFICQLILGKAGQRESVLPGAPGSGLESSLAEVFPVGKHGSLGANPKGGTLGLAASILVVSHGAYMRSLFGYFLSDLRCSLPGARDKLELSSITPNTGISVFIIDCEEARQPSIQCVCMNLQEHLNGVTEKQH
For B1, the binding (TRAF6 (332–530)) was “binds”, the binding [1] was “binds” and the binding [2] was “no binding”. The binding (TAK1 (1–300)) was “binds”, the binding (TLR4) was “no binding” and the binding [3] was “binds”. The binding [4] was “no binding”.

Reference: PMC11109194
